This is one part of the list.

The assay relates to PfAP2-HC AP2 domain (GST-tagged). The experiment in a line: gcPBM binding intensity (ln(normalized median fluorescence intensity)); higher = stronger DNA binding. The gist of the method:
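Using an Agilent 4 × 180k array, primer-extended double-stranded 36-bp intergenic genomic probes and negative controls were exposed for 1 h to GST-fused P. falciparum DNA-binding domains expressed in E. coli. Binding was carried out in 1× PBS with 1% milk, 0.2 mg/ml BSA, 0.5% salmon testes DNA and 0.03% Triton X-100, and protein was detected with Alexa488 anti-GST antibody and a 488 nm scan. Binding intensity is the highest Masliner-normalised natural-log median intensity across replicate spots of either probe orientation.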
Consider “TTTTTTTATATTTTTAGTACACATTGGTATATATAT [XGTACX_site4114]”, for which the “gcPBM binding intensity (ln)” value was 9.78.

On to “ATATATATATGTCAAAGTACTAAAAATATATACATA [XGTACX_site3397]”, for which the “gcPBM binding intensity (ln)” value is 9.72.

Regarding “AACATTTTAAATTATACACACATTTTGAATATATAT [CACACA_site3470]”, the “gcPBM binding intensity (ln)” value was found to be 9.74. As for “TGTTGTTGTAATTATTGTACGTTATGCGATTATTAT [XGTACX_site7005]”, the “gcPBM binding intensity (ln)” value is 9.78. As for “TATACACCCAGACACACACACACACCCAAAAAAAAA [CACACA_site497]”, the “gcPBM binding intensity (ln)” value was found to be 10.9.

Regarding “TAATGTTACACAAACTTTTCATTCTTTTTAATAAAT [TGCATGCA_negctrl_site331]”, the “gcPBM binding intensity (ln)” value was 9.43. With “ATATAATTATAAAATAAACACACATATATATTTATA [CACACA_site8039]”, the “gcPBM binding intensity (ln)” value came out at 9.91. For “TTATTTATTTATAATTGTACATTGCAAATGAATTTA [XGTACX_site4083]”, the “gcPBM binding intensity (ln)” value was found to be 9.25. On to “ATATATATATATATATGTACATAGAGAAGTATCTTT [XGTACX_site4737]”, for which the “gcPBM binding intensity (ln)” value is 9.81. With “ATTTTATAAAGGAAGTGTACTAATAAATTCAAATTA [XGTACX_site3922]”, the “gcPBM binding intensity (ln)” value was found to be 9.34. Turning to “AAGAAAAAATATACTTCACACATTTAATATATAATT [CACACA_site4919]”, the “gcPBM binding intensity (ln)” value is 9.61. Under “AAAAAAAAAAAAAAATGTACAAATATATACATATAT [XGTACX_site935]” stands 9.59; under “AAAAAAGAATTGTGCACACACAAAAAATGTTCATAA [CACACA_site1103]”, 10.2. With “TCGATGTTGGTAGGATGTACGGTACCGGTAGTATTT [XGTACX_site4214]”, the “gcPBM binding intensity (ln)” value was found to be 9.66. Take “AAAATAAACTATAGTACACACTTATTATTATGAAAT [CACACA_site5488]”: the “gcPBM binding intensity (ln)” value was found to be 9.85. On to “GATATATTTTATATATGTACATACAAGGGTAAATAT [XGTACX_site1202]”, for which the “gcPBM binding intensity (ln)” value was 9.68. With “TCAATTAGACGAAAATGTACATATGTATATATTTTT [XGTACX_site5027]”, the “gcPBM binding intensity (ln)” value is 9.62.

For “AAAATATGTAGCTACACACACATAAACAAAATAACA [CACACA_site1007]”, the “gcPBM binding intensity (ln)” value came to 10.1.

“GAAAACAAAATGGTAACACACAAATGTAAATAGTAT [CACACA_site2113]”: the “gcPBM binding intensity (ln)” value turned out to be 10. For “AAAATAAATAAATACACACACACGAATATTTATATA [CACACA_site6892]”, the “gcPBM binding intensity (ln)” value amounted to 10.6. “ATTATAAAAATATCGTGTACATATTTTTTAAAATAA [XGTACX_site5072]”: the “gcPBM binding intensity (ln)” value was found to be 9.34.

As for “AAAAAAAAAAAAAAAAGTACACATCATTTTATGAAA [XGTACX_site1402]”, the “gcPBM binding intensity (ln)” value came to 9.43. “ATTATTTCAATTTTTTTTGTTTTTAAAAAAAAAAAT [CACACA_negctrl_site1387]”: the “gcPBM binding intensity (ln)” value was found to be 9.25.

For the sequence “TAGTAGTTATCATTAACATGCAATAATATTATTTAA [TGCATGCA_site178]”, the “gcPBM binding intensity (ln)” value stood at 9.45. As for “AAGTTAGGATAGATCCAATAATTTTTAGTTTCTCTT [GTGCAC_negctrl_site272]”, the figure is 9.45. Consider “ATGAACATATTTTTTTGTACTTATGAAAATATGTTA [XGTACX_site5996]”, for which the “gcPBM binding intensity (ln)” value turned out to be 9.44. “AAAAAAAAAAAAAAAAGTACTCTATAAGTAACATTT [XGTACX_site6973]”: the “gcPBM binding intensity (ln)” value came to 9.44. In the case of “ATTTTTTTGTTATTGTTGAAAAGATGGTTCTTTTTT [CACACA_negctrl_site1346]”, the “gcPBM binding intensity (ln)” value amounted to 9.52. In the case of “AATTTCTTATTTTGTACACACAATAAATATTCACAT [CACACA_site1612]”, the “gcPBM binding intensity (ln)” value came to 10. “AAAATAAGAAAACAAATGCACACCATTTATATAGAT [CACACA_site1055]”: the “gcPBM binding intensity (ln)” value was found to be 10.1. Regarding “TATATAATAAGAAAATATGTGCGTAGTTCAGCAAAA [XGTACX_negctrl_site304]”, the “gcPBM binding intensity (ln)” value is 9.88. On to “AATTGGATAAACCAATTGGATTATAATACGATATAT [CACACA_negctrl_site275]”, for which the “gcPBM binding intensity (ln)” value turned out to be 9.66. Under GAAAAATATATTCTGGTGCATGAATAAAATCATAAA stands 9.52. For the sequence “ATATATATATATATATGTACATAATTAATAGCATAT [XGTACX_site1428]”, the “gcPBM binding intensity (ln)” value was determined as 9.86. Under “GAAAAAGATGCGCATACACACAGATGAATAACAAAA [CACACA_site1628]” stands 10.2; under “ATCATATTTATGTTGGTGCATTATACATAAAGTTTA [GTGCAC_site9574]”, 9.56; under “TGTCTTATTTATATTACACACTATATGAAAAAATAT [CACACA_site6807]”, 9.58. Consider “TATTCATCACTTTTTTGTACTTATGGATAAAATTTT [XGTACX_site3349]”, for which the “gcPBM binding intensity (ln)” value was found to be 9.62. As to “AAAGGATATATCCAGAGTACATATTCTGTGTAATAC [XGTACX_site1547]”, the “gcPBM binding intensity (ln)” value was 9.78. For “CACAAAAAAAATTATACACACACACCCATATATATA [CACACA_site8255]”, the “gcPBM binding intensity (ln)” value amounted to 10.3. As for “ATAATTGTTTCTTTCTCCTTTTTATTTCATTTTAAA [CACACA_negctrl_site964]”, the “gcPBM binding intensity (ln)” value was 9.64. Consider AATAAATACTAAATGGTGCAAAATTTTTTAACACTG, for which the “gcPBM binding intensity (ln)” value turned out to be 9.63. With “TTTCAAAAATGAGTTACACACACACCGATATATATA [CACACA_site5263]”, the “gcPBM binding intensity (ln)” value was 10.4. As to “AGCCACCATATTTACACACACATCAAAATGTATTAA [CACACA_site1816]”, the “gcPBM binding intensity (ln)” value was 10.2.
